Test results reported in the supplement of paper PMC11417369.
This is one part of the list.

tested on: PfHDP1 homeodomain (GST-tagged); test: gcPBM binding intensity (ln(normalized median fluorescence intensity)); higher = stronger DNA binding
How it was run: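 GST-fused DNA-binding domains of P. falciparum, expressed in E. coli, were applied at about 25 μg on average for 1 h to an Agilent 4 × 180k array of primer-extended double-stranded 36-bp intergenic genomic probes and negative controls. Binding intensity is the highest Masliner-normalised natural-log median intensity across replicate spots of either probe orientation, measured with Alexa488 anti-GST antibody and a 488 nm scan.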

Row | Sequence | gcPBM binding intensity (ln)
1 | AAAATTGATATATGCACACATATATATATTAAATAT [CACACA_site763] | 10.1
2 | AAAAAAAAAAAAAACACACATACACATATATTTTTA [CACACA_site3893] | 6.63
3 | TTTCATTCTGGTATCACACATTTATTTTCTAGTTTA [CACACA_site4286] | 6.59
4 | TTTTTTTTTATAGCTAAACACACATAAGAATATATG [CACACA_site8282] | 6.21
5 | AGTTATAATAAAAAATGTACGTATTATCATTAAGAA [XGTACX_site4244] | 6.39
6 | TATAAATATAAAAGGAGTACAAATATATATATATAT [XGTACX_site1386] | 9
7 | GAAAATAAAAAATATGAACACACATATATAACAAAA [CACACA_site7975] | 6.97
8 | TCCTAATATATGTATGCACACACAATATATACATAT [CACACA_site9111] | 9.24
9 | AAAAAAATTAAACATACACACGTTACTATTTTTATA [CACACA_site5009] | 6.15
10 | AACAAGGCCCGGTACTGTACATTTTTTCATAACATT [XGTACX_site6134] | 6.05
11 | TATATACATATATACACACACATATATTATATATAT [CACACA_site275] | 7.06
12 | GTATGTATATTTATCTGTACATATTTATGTATTCTT [XGTACX_site2112] | 6.35
13 | AGGAAAAAATCGAGTAGTACACATTTAGAAATATAA [XGTACX_site8019] | 6.53
14 | AAAATATAAATTCATGTGCACATATATATTTTGTTA [GTGCAC_site9782] | 10.7
15 | ATATCACATATATATATATATATATATATATATATA [XGTACX_negctrl_site463] | 9.51
16 | TTTAAACCTTAATATTGTACGCAAAAAAAAAAAGAA [XGTACX_site3757] | 6.59
17 | TATTAATAATTAAGTTGTACATTAATTAATATACTG [XGTACX_site6994] | 6.25
18 | TTTAATATTAATAATTGTACATTTTCATAAATACGC [XGTACX_site2837] | 6.37
19 | TTATTAATTTATAAATGTACGAATTTTTTATTTAAC [XGTACX_site7605] | 6.37
20 | CATATCAATAATATCACACATATATGTGATTTTATT [CACACA_site5053] | 6.41
21 | CCCCTTAATTAAAGGAGTACTATTTGTGAATAATAT [XGTACX_site4715] | 6.93
22 | TTTATGTAGGAACTAACACACATTGTAAGATTCAGA [CACACA_site1998] | 6.08
23 | GGAACTTTTGGAGGTGCATGCGGAGCAATCTTTTCA [TGCATGCA_site454] | 8.33
24 | GAAGGAAATAAATCAACACACATATATTATAGATAT [CACACA_site7095] | 6.39
25 | ATAATGTAAAATAAATGTACGCAATATATAAAAAAT [XGTACX_site5747] | 6.89
